# Some of the results follow.
# B1: SP16665A-bot-344-23-344 (Bacteroides ovatus) (protein)
# chain: SDNEFPDFDYQTVYFANQYGLRTIELGESEFVDNTLDNQHKMVIKAAWGGGYTNRNNVVINFKVDESLCDNLYFKDTDQPLVPMPASYYTLASDRIAIPKGQIMAGVEVQLTDDFFADEKSISENYVIPLLMTNVQGADSILQGKPVVENPVLTNAGDWSILPQNFVLYAVKYVNPWHGEYLRRGIDHATVAGTSKDIIRHEQFVENDEVVNISTKSMKDNLLTLKTKDESGKDISYTVRLSFAEDGSCTVHSGSQNVVVSGSGKFVSKGEKNSLGGKDRNAIYLDYTVNLTDNNIQLATKDTLVLRTRNVYGGKSLEVVRK
# Key:
# Experiment in all cases: glycan array binding signal (z-score within array); higher = stronger binding
# Conditions in all cases: glycan notation: IUPAC condensed, linker removed
# [1] = target: Gal(a1-3)[Gal(a1-4)]Gal(b1-4)GlcNAc
# Outline: (§1)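 Glycan array data came from 3228 arrays in the Consortium for Functional Glycomics database, and only arrays with an available protein sequence were kept. Glycan names were put into IUPAC-condensed notation, and columns mapping to the same glycan were averaged. The binding signal is a within-array Z-score, averaged across arrays of one protein sequence run at different concentrations or buffers and across linkers. A negative Z-score can be read as non-binding.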
# [2] = target: Gal(a1-4)Gal(b1-3)GlcNAc(b1-2)Man(a1-3)[Gal(a1-4)Gal(b1-3)GlcNAc(b1-2)Man(a1-6)]Man(b1-4)GlcNAc(b1-4)GlcNAc
# Outline: as §1
# Gal(a1-4)Gal(b1-4)Glc = target: Gal(a1-4)Gal(b1-4)Glc
# Outline: as §1
# Gal(a1-4)Gal(b1-4)GlcNAc = target: Gal(a1-4)Gal(b1-4)GlcNAc
# Outline: as §1
# [3] = target: Gal(a1-4)Gal(b1-4)GlcNAc(b1-2)Man(a1-3)[Gal(a1-4)Gal(b1-4)GlcNAc(b1-2)Man(a1-6)]Man(b1-4)GlcNAc(b1-4)GlcNAc
# Outline: as §1
# [4] = target: Gal(a1-4)Gal(b1-4)GlcNAc(b1-3)Gal(b1-4)Glc
# Outline: as §1
# Gal(a1-4)GlcNAc = target: Gal(a1-4)GlcNAc
# Outline: as §1
# Gal(a1-6)Glc = target: Gal(a1-6)Glc
# Outline: as §1
# Gal(b1-2)Gal = target: Gal(b1-2)Gal
# Outline: as §1
# Gal(b1-3)Gal = target: Gal(b1-3)Gal
# Outline: as §1
# Gal(b1-3)Gal(b1-4)GlcNAc = target: Gal(b1-3)Gal(b1-4)GlcNAc
# Outline: as §1
# Gal(b1-3)GalNAc = target: Gal(b1-3)GalNAc
# Outline: as §1
# [5] = target: Gal(b1-3)GalNAc(a1-3)[Fuc(a1-2)]Gal(b1-4)Glc
# Outline: as §1
# [6] = target: Gal(b1-3)GalNAc(a1-3)[Fuc(a1-2)]Gal(b1-4)GlcNAc
# Outline: as §1
# Gal(b1-3)GalNAc(b1-3)Gal = target: Gal(b1-3)GalNAc(b1-3)Gal
# Outline: as §1
# [7] = target: Gal(b1-3)GalNAc(b1-3)Gal(a1-4)Gal(b1-4)Glc
# Outline: as §1
# [8] = target: Gal(b1-3)GalNAc(b1-4)Gal(b1-4)Glc
# Outline: as §1
# [9] = target: Gal(b1-3)GalNAc(b1-4)[Neu5Ac(a2-3)]Gal(b1-4)Glc
# Outline: as §1
# Gal(b1-3)GlcNAc = target: Gal(b1-3)GlcNAc
# Outline: as §1
# [10] = target: Gal(b1-3)GlcNAc(a1-3)Gal(b1-4)GlcNAc
# Outline: as §1
# [11] = target: Gal(b1-3)GlcNAc(a1-6)Gal(b1-4)GlcNAc
# Outline: as §1
# Gal(b1-3)GlcNAc(b1-2)Man = target: Gal(b1-3)GlcNAc(b1-2)Man
# Outline: as §1
# [12] = target: Gal(b1-3)GlcNAc(b1-2)Man(a1-3)[Gal(b1-3)GlcNAc(b1-2)Man(a1-6)]Man(b1-4)GlcNAc(b1-4)GlcNAc
# Outline: as §1
# [13] = target: Gal(b1-3)GlcNAc(b1-2)Man(a1-3)[Gal(b1-3)GlcNAc(b1-2)Man(a1-6)]Man(b1-4)GlcNAc(b1-4)[Fuc(a1-6)]GlcNAc
# Outline: as §1
# [14] = target: Gal(b1-3)GlcNAc(b1-2)Man(a1-3)[GlcNAc(b1-4)][Gal(b1-3)GlcNAc(b1-2)Man(a1-6)]Man(b1-4)GlcNAc(b1-4)GlcNAc
# Outline: as §1
# [15] = target: Gal(b1-3)GlcNAc(b1-2)[Gal(b1-3)GlcNAc(b1-6)]Man(a1-6)[Gal(b1-3)GlcNAc(b1-2)Man(a1-3)]Man(b1-4)GlcNAc(b1-4)GlcNAc
# Outline: as §1
# [16] = target: Gal(b1-3)GlcNAc(b1-3)Gal(b1-3)GlcNAc
# Outline: as §1
# [17] = target: Gal(b1-3)GlcNAc(b1-3)Gal(b1-4)Glc
# Outline: as §1
# [18] = target: Gal(b1-3)GlcNAc(b1-3)Gal(b1-4)GlcNAc
# Outline: as §1
# [19] = target: Gal(b1-3)GlcNAc(b1-3)Gal(b1-4)GlcNAc(b1-2)Man(a1-3)[Gal(b1-3)GlcNAc(b1-3)Gal(b1-4)GlcNAc(b1-2)Man(a1-6)]Man(b1-4)GlcNAc(b1-4)GlcNAc
# Outline: as §1
# [20] = target: Gal(b1-3)GlcNAc(b1-3)Gal(b1-4)GlcNAc(b1-2)[Gal(b1-3)GlcNAc(b1-3)Gal(b1-4)GlcNAc(b1-6)]Man(a1-6)[Gal(b1-3)GlcNAc(b1-3)Gal(b1-4)GlcNAc(b1-2)Man(a1-3)]Man(b1-4)GlcNAc(b1-4)[Fuc(a1-6)]GlcNAc
# Outline: as §1
# [21] = target: Gal(b1-3)GlcNAc(b1-3)Gal(b1-4)GlcNAc(b1-3)Gal(b1-4)GlcNAc(b1-2)[Gal(b1-3)GlcNAc(b1-3)Gal(b1-4)GlcNAc(b1-3)Gal(b1-4)GlcNAc(b1-6)]Man(a1-6)[Gal(b1-3)GlcNAc(b1-3)Gal(b1-4)GlcNAc(b1-3)Gal(b1-4)GlcNAc(b1-2)Man(a1-3)]Man(b1-4)GlcNAc(b1-4)[Fuc(a1-6)]GlcNAc
# Outline: as §1
# [22] = target: Gal(b1-3)GlcNAc(b1-3)Gal(b1-4)GlcNAc(b1-6)[Gal(b1-3)GlcNAc(b1-3)]Gal(b1-4)Glc
# Outline: as §1
# [23] = target: Gal(b1-3)GlcNAc(b1-3)Gal(b1-4)[Fuc(a1-3)]GlcNAc
# Outline: as §1
# [24] = target: Gal(b1-3)GlcNAc(b1-3)Gal(b1-4)[Fuc(a1-3)]GlcNAc(b1-6)[Gal(b1-3)GlcNAc(b1-3)]Gal(b1-4)Glc
# Outline: as §1
# [25] = target: Gal(b1-3)GlcNAc(b1-3)GalNAc
# Outline: as §1
# [26] = target: Gal(b1-3)GlcNAc(b1-6)Gal(b1-4)GlcNAc
# Outline: as §1
# [27] = target: Gal(b1-3)GlcNAc(b1-6)GalNAc
# Outline: as §1
binder,measurement,setting,value
B1,glycan array binding signal (z-score),[1],1.28
same,glycan array binding signal (z-score),[2],-0.247
same,glycan array binding signal (z-score),Gal(a1-4)Gal(b1-4)Glc,0.739
same,glycan array binding signal (z-score),Gal(a1-4)Gal(b1-4)GlcNAc,0.261
same,glycan array binding signal (z-score),[3],0.55
same,glycan array binding signal (z-score),[4],-0.507
same,glycan array binding signal (z-score),Gal(a1-4)GlcNAc,0.096
same,glycan array binding signal (z-score),Gal(a1-6)Glc,0.432
same,glycan array binding signal (z-score),Gal(b1-2)Gal,0.055
same,glycan array binding signal (z-score),Gal(b1-3)Gal,0.251
same,glycan array binding signal (z-score),Gal(b1-3)Gal(b1-4)GlcNAc,-0.593
same,glycan array binding signal (z-score),Gal(b1-3)GalNAc,-0.057
same,glycan array binding signal (z-score),[5],-0.521
same,glycan array binding signal (z-score),[6],-0.695
same,glycan array binding signal (z-score),Gal(b1-3)GalNAc(b1-3)Gal,-0.698
same,glycan array binding signal (z-score),[7],-0.489
same,glycan array binding signal (z-score),[8],-0.149
same,glycan array binding signal (z-score),[9],-0.5
same,glycan array binding signal (z-score),Gal(b1-3)GlcNAc,0.061
same,glycan array binding signal (z-score),[10],0.217
same,glycan array binding signal (z-score),[11],-0.414
same,glycan array binding signal (z-score),Gal(b1-3)GlcNAc(b1-2)Man,2.76
same,glycan array binding signal (z-score),[12],0.261
same,glycan array binding signal (z-score),[13],-0.152
same,glycan array binding signal (z-score),[14],-0.153
same,glycan array binding signal (z-score),[15],-0.325
same,glycan array binding signal (z-score),[16],0.024
same,glycan array binding signal (z-score),[17],-0.437
same,glycan array binding signal (z-score),[18],0.03
same,glycan array binding signal (z-score),[19],0.086
same,glycan array binding signal (z-score),[20],0.558
same,glycan array binding signal (z-score),[21],0.752
same,glycan array binding signal (z-score),[22],0.016
same,glycan array binding signal (z-score),[23],-0.575
same,glycan array binding signal (z-score),[24],0.183
same,glycan array binding signal (z-score),[25],0.029
same,glycan array binding signal (z-score),[26],-0.558
same,glycan array binding signal (z-score),[27],0.162

# From the supplement of paper PMC8728848
